Publication PMC3493529, “Molecular and Pharmacological Characterization of Serotonin 5-HT2α and 5-HT7 Receptors in the Salivary Glands of the Blowfly Calliphora vicina” (PLoS ONE, 2012)
Where two headings read alike, the source gives them in different places.

Key:
Cv5-HT2α = Cv5-HT2α (Calliphora vicina, UniProt I7JA47); experiment: Inhibition of 5-HT-induced Ca2+ signals in Cv5-HT2α-expressing cells; format: cell-based
Experimental: (§1) We applied a previously established protocol to generate cell lines that constitutively expressed either Cv5-HT2α or Cv5-HT7. For Cv5-HT2α expression, human embryonic kidney cells (HEK 293; ECACC, Salisbury, UK) were chosen. […] (flpTM cells, provided by Sibion biosciences GmbH, Jülich, Germany). Approximately 8 µg of the respective expression vectors were introduced into ∼4×10^5 cells by a modified calcium-phosphate method. Stably transfected cells were selected in the presence of the antibiotics Blasticidin (0.1 mg/ml; Cv5-HT2α) or G418 (0.8 mg/ml; Cv5-HT7). Expression of Cv5-HT2α and Cv5-HT7 was monitored by Western blotting with commercially available anti-His antibodies (anti-6x His Epitope Tag; Rockland Immunochemicals Inc, Gilbertsville, USA) and anti-HA antibodies (clone 3F10; Roche, Penzberg, Germany), respectively.
(§2) The ability of Cv5-HT2α to induce Ca^2+ signals in the transfected cell line was measured with the Ca^2+-sensitive dye Fluo-4. Similarly, Cv5-HT7-induced cAMP production was indirectly monitored by the cAMP-dependent activation of the cyclic nucleotide-gated ion channel in flpTM cells (see above). The cyclic nucleotide-gated ion channel is permeable to Ca^2+ ions and thus an increase in [cAMP]i leads to an influx of Ca^2+ ions, which can be detected with Fluo-4. Cells were grown in 96-well plates to a density of ∼3×10^4 (Cv5-HT2α) or 1.5×10^4 (Cv5-HT7) and then incubated in extracellular solution (ES in mM: 120 NaCl, 5 KCl, 2 CaCl2, 2 MgCl2, 10 glucose, 10 HEPES, pH 7.4) containing 3 mM probenecid, 0.02% (w/v) Pluronic® F-127 (Sigma) and 2 µM Fluo-4AM (Invitrogen). After 1 h, the loading solution was substituted for dye-free ES. To inhibit cAMP hydrolysis in Cv5-HT7-expressing cells, ES containing 100 µM isobutylmethylxanthine (IBMX) was used. Plates were transferred into a fluorescence reader (FLUOstar Omega; bmg, Offenburg, Germany) and Fluo-4 fluorescence was monitored. The excitation wavelength was 485 nm. Fluorescence emission was detected at 520 nm. Once the basal fluorescence in each well had reached a stable value, various concentrations of the respective ligands were added. The resulting changes in Fluo-4 fluorescence were recorded automatically.
(§3) Changes in Ca^2+-dependent Fluo-4 signals were registered automatically. Data represent the means±SD of eight replicates. […] Relative fluorescence (%) is normalized to the values obtained with 100 nM 5-HT in the absence of antagonists. […] Relative fluorescence (%) is normalized to the values obtained with 6 nM 5-HT in the absence of antagonists.

Cv5-HT7 = Cv5-HT7 (Calliphora vicina, UniProt I7IA71); experiment: Inhibition of 5-HT-induced Fluo-4 signals in Cv5-HT7-expressing cells; format: cell-based
Chain of Cv5-HT7 (I7IA71 entry or part of it): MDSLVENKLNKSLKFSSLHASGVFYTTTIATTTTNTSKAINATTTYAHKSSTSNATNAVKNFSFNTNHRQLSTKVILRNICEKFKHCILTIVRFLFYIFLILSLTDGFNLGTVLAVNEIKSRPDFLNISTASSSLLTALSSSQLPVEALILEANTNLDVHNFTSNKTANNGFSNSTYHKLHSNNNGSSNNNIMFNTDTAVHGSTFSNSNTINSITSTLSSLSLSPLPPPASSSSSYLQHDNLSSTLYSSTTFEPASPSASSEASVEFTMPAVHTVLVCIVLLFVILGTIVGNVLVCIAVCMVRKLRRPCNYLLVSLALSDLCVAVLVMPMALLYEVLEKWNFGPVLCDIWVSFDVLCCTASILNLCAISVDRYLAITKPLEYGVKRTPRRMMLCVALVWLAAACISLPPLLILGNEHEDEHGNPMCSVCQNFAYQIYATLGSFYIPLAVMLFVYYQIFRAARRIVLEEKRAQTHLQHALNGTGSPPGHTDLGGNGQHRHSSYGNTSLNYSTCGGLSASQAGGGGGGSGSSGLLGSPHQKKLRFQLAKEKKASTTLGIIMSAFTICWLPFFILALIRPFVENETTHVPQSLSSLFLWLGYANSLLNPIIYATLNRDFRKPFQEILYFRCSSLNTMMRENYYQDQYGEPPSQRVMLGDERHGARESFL
Experimental: as §1, §2, §3

[1] = Cv5-HT2α IC50, in the presence of 100 nM 5-HT
[2] = Cv5-HT2α log IC50, in the presence of 100 nM 5-HT
[3] = Cv5-HT7 IC50, in the presence of 6 nM 5-HT
[4] = Cv5-HT7 log IC50, in the presence of 6 nM 5-HT

Chain of Cv5-HT2α (I7JA47 entry or part of it): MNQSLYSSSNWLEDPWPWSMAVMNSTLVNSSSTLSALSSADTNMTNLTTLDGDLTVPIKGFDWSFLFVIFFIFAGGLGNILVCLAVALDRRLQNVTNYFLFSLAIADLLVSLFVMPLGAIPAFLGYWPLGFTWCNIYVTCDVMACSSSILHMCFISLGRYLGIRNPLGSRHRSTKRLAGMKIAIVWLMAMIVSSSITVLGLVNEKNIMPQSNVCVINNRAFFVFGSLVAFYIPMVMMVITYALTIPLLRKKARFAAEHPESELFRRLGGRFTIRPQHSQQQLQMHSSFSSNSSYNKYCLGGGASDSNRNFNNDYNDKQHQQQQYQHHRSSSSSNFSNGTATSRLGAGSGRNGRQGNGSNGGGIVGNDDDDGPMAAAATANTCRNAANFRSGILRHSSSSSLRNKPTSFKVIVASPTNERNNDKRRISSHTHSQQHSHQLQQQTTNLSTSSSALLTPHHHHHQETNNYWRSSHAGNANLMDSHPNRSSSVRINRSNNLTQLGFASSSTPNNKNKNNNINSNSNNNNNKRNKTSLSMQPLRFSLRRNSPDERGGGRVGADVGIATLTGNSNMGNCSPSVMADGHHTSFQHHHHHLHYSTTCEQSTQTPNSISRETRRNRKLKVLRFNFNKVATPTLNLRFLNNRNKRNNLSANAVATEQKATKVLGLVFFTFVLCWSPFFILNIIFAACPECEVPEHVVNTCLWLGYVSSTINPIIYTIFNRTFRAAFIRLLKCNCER

SMILES | IC50 (Cv5-HT2α; [1]) | IC50 (Cv5-HT2α; [2]) | IC50 (Cv5-HT7; [3]) | IC50 (Cv5-HT7; [4]) | IC50 (Cv5-HT2α; in the presence of 100 nM 5-HT, read-out: Cv5-HT2α IC50) | IC50 (Cv5-HT2α; in the presence of 100 nM 5-HT, read-out: Cv5-HT2α log IC50 (converted)) | IC50 (Cv5-HT7; in the presence of 6 nM 5-HT, read-out: Cv5-HT7 IC50) | IC50 (Cv5-HT7; in the presence of 6 nM 5-HT, read-out: Cv5-HT7 log IC50 (converted))
CN1CCN(C2=Nc3cc(Cl)ccc3Nc3ccccc32)CC1 [clozapine] | 15000 nM | 15100 nM | 80 nM | 79.4 nM |  |  |  | 
CN1CCC(=C2c3ccccc3C=Cc3ccccc32)CC1 [cyproheptadine] | 1600 nM | 1580 nM | 73 nM | 72.4 nM |  |  |  | 
CN1CCN2c3ccccc3Cc3ccccc3C2C1 (stereo not drawn) [mianserin] |  |  |  |  | 730 nM | 724 nM | 67 nM | 67.6 nM
